Hit rate of the full screen: of about 420,000 compounds, about 64,000 (15%) were called active. Inconclusive results, whose numbers are uncertain, are shown with a selection of clear calls. The call rests on the fitted dose curve; in most records, active means well fitted inhibition curve with a large enough effect; inconclusive means small, poorly fitted or top-dose-only effect; inactive means flat fitted curve, though single readings scatter. No potency is given beside an inconclusive call; the fits are too rough.
test: qHTS for Inhibitors of human tyrosyl-DNA phosphodiesterase 1 (TDP1): qHTS in cells in absence of CPT; conditions: DT40 Tdp1-/- hTDP1 cells, no CPT, ATP luminescence, 48 h; activity change, negative = growth inhibition: at 46.2 µM (top of the series); further: nearly all actives have a fitted effect of over 55% in size
Summary of the method: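 Cells were dispensed at 400 per well, compounds added by pin tool, plates incubated ≥48 hr at 37 °C, then CellTiter-Glo added for 30 min at room temperature before luminescence reading. Line: DT40 Tdp1-/- complemented with hTDP1; camptothecin omitted.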
On the % scale 0 is the no-effect control and ±100 the full control effect; potency means the concentration at half of the fitted maximal effect; tags describe the fitted curve by direction and shape.

SMILES	Potency	activity change, negative = growth inhibition
O=C(Nc1ccc(Cl)cc1)Nc1ccc(Oc2cccnc2)nc1	inconclusive [inhibitor, single point]	
O=C(CCCc1ccccc1)NCc1cn2ccsc2n1		inactive: -17.6%
COc1ccc(-c2noc(CCC(=O)N3CCN(c4cccc(F)c4)CC3)n2)cc1	inconclusive [inhibitor, partial curve]	
CC(C)(C)C(=O)Nc1cccc(C(=O)OCc2cc(=O)n3nc(C4CC4)sc3n2)c1	active: 18.4 µM	
CCOC(=O)c1ccc(Nc2sc(C(=O)c3cccc([N+](=O)[O-])c3)c(N)c2C#N)cc1	active: 0.731 µM	
CN(C)CCNC(=O)C1(O)c2cc(Br)ccc2NC(=O)N1c1ccc(Cl)cc1 (stereo unspecified)		inactive: -13.4%
COC(=O)[C@H](C)NC(=O)NC1CCN(Cc2ccccc2)CC1		inactive: -2.46%
O=C(Nc1ccc(F)cc1)Nc1ccc(N2CCOCC2)c2nonc12	inconclusive [inhibitor, partial curve, poor fit]	
CC(NC(=O)c1cc(-c2ccc3c(c2)OCO3)nc2ccccc12)C(C)(C)C (stereo unspecified)	inconclusive [inhibitor, partial curve]	
CCC1=C(OC(=O)N(CC)CC)N2C(=O)OC(=NCCc3c[nH]c4ccccc34)[C@]2(Cc2ccccc2)[C@H]2C1=CC[C@H]1C(=O)N(c3ccccc3)C(=O)[C@H]12	inconclusive [inhibitor, partial curve, poor fit]	
Cc1cc(C)c(C)c(S(=O)(=O)NCCCN2CCCC2=O)c1C		inactive: -13.8%
Cc1ccc(OCC(=O)Nn2cnc3ccccc32)cc1		inactive: -10.1%
Cc1ccc(S(=O)(=O)N(C)C)cc1NC(=O)c1cc(C(C)(C)C)nn1Cc1ccccc1	inconclusive [inhibitor, single point]	
C=CCN1C(=O)C2C(C(=O)NCc3ccccc3)C3(C)C=CC2(O3)C1C(=O)NC(C)(C)C (stereo unspecified)		inactive: 0.828%
CCCCN(CCCC)CCNC(=O)CN1C(=O)COc2ccc(S(=O)(=O)N3CCC(C)CC3)cc21	inconclusive [inhibitor, single point]	
CCOC(=O)c1ccc(NC(=O)CC2C(=O)N(c3ccc(C)cc3)C(=O)N2C2CCCC2)cc1 (stereo unspecified)	active: 20.6 µM	
OC[C@H]1O[C@@H](c2nc(-c3cccc4ccccc34)no2)[C@H](O)[C@@H]1O	active: 14.6 µM	
CCOc1ccc(C(=O)N2CCCC(c3nc(-c4ccc(C)o4)no3)C2)cc1 (stereo unspecified)		inactive: -7.64%
Cc1ccc(N(CC(=O)NCc2ccco2)C(=O)CNS(=O)(=O)c2ccc(F)cc2)c(C)c1		inactive: -15.3%
CCS(=O)(=O)c1nc(S(=O)(=O)c2ccc(C)cc2)c(NCC(C)C)s1	inconclusive [inhibitor, single point]	
CCOC(=O)c1nc2cc3n(c(C)c-2c1C)C(C)C(C)=C3C (stereo unspecified)	active: 13 µM	
CCOC(=O)N1CCc2c(sc(NCc3sccc3C)c2C(=O)Nc2cc(Cl)ccc2OC)C1	inconclusive [inhibitor, single point]	
COC(=O)CN1C(=O)CSc2ccc(S(=O)(=O)Nc3c(C)cc(C)cc3C)cc21	inconclusive [inhibitor, single point]	
CCOC(=O)c1ccc(NC(=O)CSc2nc(-c3cccs3)cc(C(F)(F)F)c2C#N)cc1	inactive	

SMILES	Potency	activity change, negative = growth inhibition
COc1cc(N2CCCC2)c(OC)cc1/C=C(/C#N)c1cccc(Br)c1	inconclusive [inhibitor, single point]	
Cc1nn(C)cc1C=NCCOCc1ccccc1		inactive: -0.107%
CCCN(CCO)CCCc1ccccc1		inactive: -15.2%
COc1ccc(C(=O)c2cc3cccc(OC)c3o2)cc1		inactive: 6.71%
COc1ccccc1C1C(C(=O)c2cc3ccccc3o2)=C(O)C(=O)N1CCN1CCOCC1 (stereo unspecified)		inactive: -24.6%
O=C1CN(C(=O)COc2ccc(Cl)cc2)C(c2ccc(F)cc2)c2cc(Br)ccc2N1 (stereo unspecified)	inconclusive [inhibitor, single point]	
Cc1cc(=O)oc2ccc(OCC(=O)O)cc12		inactive: 14.6%
O=C(CNS(=O)(=O)c1ccc([N+](=O)[O-])cc1)N/N=C\c1ccc(O)cc1	inconclusive [inhibitor, single point]	
O=C1c2ccccc2S(=O)(=O)c2cc(N3CCOCC3)ccc21	active: 20.6 µM	
CC(=O)C1=C(c2ccc(Cl)c(Cl)c2)N(C(C)=O)n2cnnc2S1	active: 2.91 µM	
COc1ccccc1NS(=O)(=O)c1cccc(NC(=O)c2[nH]c(C)c(C(C)=O)c2C)c1	active: 16.4 µM	
Cn1c(SCC(=O)Nc2ccc(N3CCOCC3)c(Cl)c2)nnc1-c1ccccc1		inconclusive: -31.3% [inhibitor]
CCOc1ccccc1N(C)C(=O)c1cn(C)c(=O)c2ccccc12		inactive: -13.8%
COCCCNC(=O)c1cnn(-c2ccc(F)cc2F)c1C1CCNCC1	inconclusive [inhibitor, partial curve, poor fit]	
COc1ccccc1OCCN(C#N)c1nc(N(C)C)nc(N(C)C)n1	inconclusive [inhibitor, single point]	
CC(/C=N/NC(=O)c1cc(C2CC2)[nH]n1)=C\c1ccccc1	inconclusive [inhibitor, partial curve]	
COC(=O)c1c(NC(=O)COc2ccc(Cl)cc2Cl)sc2c1CC(C)(C)NC2(C)C	active: 8.2 µM	
Clc1ccc(Cl)c(OCCCCN2CCCCC2)c1	inconclusive [inhibitor, single point]	
S=C1Nc2cc(Cl)ccc2Sc2ccccc21		inactive: 8.29%
COc1cccc(C(=O)N(C)CC2CCN(CCc3cccc(C(F)(F)F)c3)CC2)c1	inconclusive [inhibitor, single point]	
CCc1ccc(/C=N\n2cnnc2)cc1		inactive: 3.36%
OC(CNCCc1ccc(Cl)cc1)COc1cc(Cl)ccc1Cl (stereo unspecified)	inconclusive [inhibitor, partial curve]	
CC(C)CC1NC(=O)N(CC(=O)Nc2ccc(-c3ccccc3)cc2)C1=O (stereo unspecified)	inconclusive [inhibitor, partial curve, poor fit]	
CC(C)CNC(=O)/C=C/C=C/c1ccc2c(c1)OCO2	inconclusive [inhibitor, single point]	

SMILES	Potency	activity change, negative = growth inhibition
CC(NCc1ccc(S(N)(=O)=O)cc1)C(=O)Nc1ccc([N+](=O)[O-])cc1Cl (stereo unspecified)	inconclusive [inhibitor, partial curve, poor fit]	
COc1ccc(NC(=O)CN(C)C(=O)c2c(C)nn(Cc3ccc(C)cc3)c2Cl)cc1	inconclusive [inhibitor, partial curve]	
CCCCCCNC(=O)c1cc(S(=O)(=O)N2CCc3ccccc32)ccc1F	inconclusive [inhibitor, full curve]	
CC(C(=O)Nc1ccc([N+](=O)[O-])cc1)N1CCN(C/C=C/c2ccccc2)CC1 (stereo unspecified)	inconclusive [inhibitor, single point]	
CCn1c(CC(=O)Nc2ccc(C)cc2)nnc1SCC(=O)NCCc1ccccc1	inconclusive [inhibitor, single point]	
COc1ccc(OC)c(NC(=O)Nc2nc(C(N)c3ccccc3Cl)cs2)c1 (stereo unspecified)	inconclusive [inhibitor, single point]	
CCOC(=O)c1cc(-c2ccccc2)n(CCC(=O)Nc2cc(C)cc(C)c2)c1C	active: 14.6 µM	
COc1ccc(NC(=O)CC2C(=O)N(c3ccc(F)cc3)C(=O)N2CCc2sccc2C)cc1 (stereo unspecified)	inconclusive [inhibitor, single point]	
CCCCOc1ccc(CCC(=O)N/N=C/c2ccco2)cc1	inconclusive [inhibitor, single point]	
CCN(CC)CCNc1cc(C)c(C#N)c2nc3ccccc3n12	inconclusive [inhibitor, single point]	
Cc1ccc(-c2nc3sc(C(N)=O)c(N)c3c3c2CCCC3)cc1	inconclusive [inhibitor, single point]	
Nc1ccc2nc(-c3ccc(O)cc3)sc2c1	active: 20.6 µM	
CCC(=O)NC(c1ccc(N(C)C)cc1)c1c(O)ccc2ccccc12 (stereo unspecified)	inconclusive [inhibitor, partial curve, poor fit]	
CCNC(=O)CSc1nc2cc([N+](=O)[O-])ccc2n1-c1cccc(C(F)(F)F)c1	inconclusive [inhibitor, partial curve]	
CC(=O)c1cc(F)c(N2CCOCC2)cc1C		inactive: 1.25%
C[C@]12c3[nH]c4cc(-c5ccco5)ccc4c3CCN1C(=O)[C@@H](CC(=O)NCc1ccco1)C[C@@H]2C(=O)N1CCCCC1	inconclusive [inhibitor, single point]	
Cc1cc(C(=O)CN2C(=O)NC(C)(c3ccc(F)c(F)c3)C2=O)c(C)n1C1CC1 (stereo unspecified)	active: 5.8 µM	
O=Cc1ccc(OCC(=O)Nc2ccccc2C(F)(F)F)cc1		inactive: -24.3%
COc1ccc(S(=O)(=O)NCC2CCCN(C(=O)c3occc3C)C2)cc1 (stereo unspecified)		inactive: 4.89%
COc1ccc(S(=O)(=O)NCc2cc(=O)n(C)c(=O)n2C)cc1F		inactive: 3.92%
Cc1ccc2nc(NC(=O)c3nc(SCc4ccccc4C)ncc3Cl)sc2c1	active: 16.4 µM	
Cc1ccc(N2CCN(C(=O)C3CCN(c4ncnc5c4nc4n5CCCCC4)CC3)CC2)c(C)c1	inconclusive [inhibitor, partial curve]	
CN(Cc1ccccc1)C(=O)C1CCC(CNS(=O)(=O)c2ccc3c(c2)CCCC(=O)N3)CC1 (stereo unspecified)	inconclusive [inhibitor, partial curve]	

— PubChem BioAssay AID686978 (National Center for Advancing Translational Sciences (NCATS), 2013)
